The campaign covered roughly 46,000 compounds. About 60 (0.1%) were called active. Inconclusive results (about 3%) are left out. Calls follow the shape of the dose curve; as a rule, active = well fitted inhibition curve with a large enough effect; inconclusive = small, poorly fitted or top-dose-only effect; inactive = no such curve, though single readings can be large or run the other way. Some of the results follow.
Experiment: Primary qHTS assay for Inhibitors of ovarian cancer metastasis using an organotypic tumor microenvironment (TME) model. Also: nearly all actives have a fitted effect of over 65% in size.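 As to activity change, negative = inhibition: plate controls were DMSO wells for no effect and tomatine positive control wells for full effect.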
Conditions: SKOV3ip1-GFP adhesion/invasion on 3D omental model, fluorescence; series mostly up to 45.8 µM; activity change, negative = inhibition: at the top concentration
Method in brief: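 A 3D layer of primary human omental fibroblasts, mesothelial cells, fibronectin and collagen I, grown 48 hr, received SKOV3ip1-GFP cells in serum-free medium plus compounds at 0.36-46 umol/L. After 2 hr RT and 16 hr 37 C, fixed adherent GFP cells were counted; normalized to DMSO and tomatine.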

Activity change, negative = inhibition, inactive:
Cc1ccc2oc3c(c(=O)c2c1)C(c1ccccc1F)N(CCCN(C)C)C3=O (stereo unspecified) 3.87%
CCOc1ccccc1NC(=O)C(CC)Sc1nc2ncccc2[nH]1 (stereo unspecified) -0.43%
O=C(NCc1ccc2c(c1)CCN2C(=O)c1ccccc1)c1ccccc1 4.19%
Cc1ccc(C)c(N2CCN(C(=O)CCS(=O)(=O)c3cc4c(cc3Cl)NC(=O)CO4)CC2)c1 22.4%
COC(=O)c1sc2ncccc2c1-n1c(C)ccc1C 1.33%
CCOC(=O)N1CCN(C(=O)c2c(C)nn(-c3cccc(C)c3)c2-n2cccc2)CC1 -8.64%
COc1ccccc1CNS(=O)(=O)c1ccc2c(c1)CC(=O)N2C -1.24%
Cc1oc(-c2ccccc2Cl)nc1CS(=O)CC(=O)NCc1ccc(Cl)cc1 (stereo unspecified) -6.32%
Cc1cc(C(F)F)n2nc(C(=O)Nc3ccc(C(C)C)cc3)nc2n1 2.47%
CCC1CN(C(=O)Nc2cccc3c2CCCC3)c2cc(Cl)ccc2O1 (stereo unspecified) -14.5%
O=C(Cn1ncc2ccsc2c1=O)N1CCN(c2ccc(F)cc2)CC1 5.82%
Cc1ccc(-n2ncc3c(N4CCC(C(N)=O)CC4)ncnc32)cc1 6.05%
COc1ccc(CCNC(=O)CSc2cn(CCNC(=O)c3cccc(C(F)(F)F)c3)c3ccccc23)cc1OC 6.43%
Cc1ccc(NC(=O)Cc2coc3ccc(C(C)C)cc23)c(C)c1 -0.276%
CC1CCc2c(sc(NC(=O)c3cc(-c4cccc(Cl)c4)on3)c2C(N)=O)C1 (stereo unspecified) 4.65%
COc1cccc(CNC(=O)C(C)n2ncn3cccc3c2=O)c1OC (stereo unspecified) -16%
CCOc1ccc(-c2cn(-c3ccc(C)cc3)c(SCC(=O)Nc3ccc(C)cc3)n2)cc1 6.43%
O=S(=O)(Nc1nc2ccccc2nc1Nc1ccccc1Br)c1ccccc1 -5.38%
Fc1ccc(-c2ccc(CNCCSc3nnnn3-c3ccccc3)o2)cc1 -0.941%
O=C(NCc1ccc(F)cc1)C1CCCN(c2ncnc3onc(-c4ccc(F)cc4)c23)C1 (stereo unspecified) -15.4%
CCOc1ccccc1CNC(=O)c1ccc(-c2nc(CSc3ccc(C)cc3)c(C)o2)cc1 -7.96%
COc1ccc(/C=C\C(=O)NC2CC(=O)N(c3ccc(F)cc3)C2)cc1OC (stereo unspecified) -19.6%
COc1cccc(-n2c(SCC(=O)Nc3cccc(Cl)c3)nc3c(oc4ccccc43)c2=O)c1 76.2%
O=C(CSc1cn(CCNC(=O)c2ccccc2F)c2ccccc12)Nc1ccccc1F 5.67%
Cc1c(NC(=O)CC(C)C)cccc1-c1nc2cccnc2s1 -14.2%
CCc1ccc(NCc2cc3ccc(OC)cc3n(CC(=O)Nc3ccc(C(C)C)cc3)c2=O)cc1 -8.3%
COc1ccc(Cl)cc1NC(=O)CSC1=Nc2ccccc2C2=NC(CC(=O)NC3CCCCC3)C(=O)N12 (stereo unspecified) -5%
Cc1ccc(Nc2c(-c3ccsc3)nc3cccc(C)n23)cc1 1.54%
COc1ccccc1NC(=O)C1=C(C)Nc2nc(SCc3ccc(Cl)cc3)nn2C1c1ccccc1Cl (stereo unspecified) 6.43%
CC(NC(=O)C1CCN(C(=O)c2ccc(-n3ccc4ccccc43)s2)CC1)c1ccccc1 (stereo unspecified) -3.98%
Cc1ccc(NC(=O)Cn2nnc(-c3nc(-c4ccncc4)no3)c2N)c(C)c1 -7.66%
COc1cc(C2NC(=O)N(C)C3=C2C(=O)N(c2cccc(Cl)c2)C3)ccc1O (stereo unspecified) -17.3%
CC1CCN(C(=O)c2cc3c(=O)n(C)c4ccccc4c3s2)CC1 24.1%
CCOC(=O)C1CCN(C(=O)CN2c3ccc(C(C)C)cc3-c3ccccc3S2(=O)=O)CC1 -2.13%
Cc1ccc(CNC(=O)c2ccc(CSCc3ccccc3Cl)o2)cc1 -7.53%
Cc1cccc(CNC(=O)C(=O)Nc2ccccc2C)c1 9.54%
Fc1ccccc1-n1ncc2c1ncn1nc(-c3ccccc3Cl)nc21 4.73%
COc1ccccc1CNC(=O)CCC1N=C2c3ccccc3N=C(SCC(N)=O)N2C1=O (stereo unspecified) 5.41%
CC(=O)c1cccc(NC(=O)C2=CC(c3ccc4c(c3)OCO4)=NS(=O)(=O)N2C)c1 -4.13%
Cc1ccc(NC(=O)c2c(NC(=O)Cc3ccccc3)sc3c2CCC3)cc1 0.597%
CCN1C(=O)c2ccccc2Sc2ccc(NC(=O)Nc3ccccc3OC)cc21 -3.81%
COC(=O)Cc1c(C)c2cc3c(c(C)c2oc1=O)OCN(CCc1ccccc1F)C3 2.59%
CCc1ccc(CNC(=O)C2CCN(c3nc4ccccc4nc3C(F)(F)F)CC2)cc1 -14.7%
COc1ccc(Cn2c(CCC(=O)Nc3cccc(OC)c3)nc3cccnc32)cc1 -5.5%
CC(=O)N1CCc2cc(CNC(=O)Nc3cc(Cl)ccc3C)ccc21 1.92%
Cc1ccc(S(=O)(=O)NCC(c2ccc(N(C)C)cc2)N2CCc3ccccc32)cc1C (stereo unspecified) 6.84%
Cc1cccc(C)c1NC(=O)CSc1nc2ncccc2o1 -4.57%
COc1cccc(CNc2nccn(-c3cc(C)cc(C)c3)c2=O)c1 1.16%
COc1ccc(NC(=O)Cn2c(=O)n(Cc3ccco3)c(=O)c3cc(OC)c(OC)cc32)cc1 7.96%
Clc1ccc2nc(NCc3ccccc3)c3nncn3c2c1 -9.24%
CCSc1ncc(Cl)c(C(=O)Nc2ccc(S(=O)(=O)N3CCC(C)CC3)cc2)n1 2.51%
COCCn1c(CCC(=O)Nc2ccc(C)c(Cl)c2)nc2cccnc21 11.3%
Cc1ccc(-n2ncc(C(=O)NCCN3CCOCC3)c2C2CCN(C(=O)OC(C)(C)C)CC2)c(C)c1 17.4%
Cc1ccc(NC(=O)CSC2=Nc3ccccc3C3=NC(Cc4ccccc4)C(=O)N23)cc1C (stereo unspecified) 2.03%
CCCCN(CCCNC(=O)c1ccc(Sc2ccc(Cl)cc2)c(NC(C)=O)c1)c1ccccc1 -2.11%
Cc1cc2c(cc1S(=O)(=O)CCC(=O)N1CCCC(C)C1)OCC(=O)N2 (stereo unspecified) -6.26%
O=C(NC(=O)c1ccccc1)Nc1ccc(-n2nc(C(F)(F)F)cc2C(F)(F)F)cc1 4.64%
CCCCn1c(=N)c(S(=O)(=O)c2ccc(Cl)cc2)cc2c(=O)n3cccc(C)c3nc21 -6.55%
CC(C)(C)OC(=O)N1CCC(c2c(C(=O)NCc3ccccc3)cnn2-c2ccccc2)CC1 6.84%
O=C(c1ccc2c(c1)CCN2S(=O)(=O)c1ccccc1)N1CCN(c2cccc(Cl)c2)CC1 5.35%
CCOC(=O)CNc1nc2ccccc2n2c(C)nnc12 -13.6%
Cc1ccc(CNC(=O)c2cnc(N3CCCCC3)c3ccccc23)cc1 -15.1%
CCc1ccc(NC(=O)CSc2nc3c(sc4ccccc43)c(=O)n2CCCOC)cc1 -7.77%
CCOc1ccccc1CNC(=O)CN1C(=O)CSc2ccc(S(=O)(=O)N3CCOCC3)cc21 -1.05%
COc1ccc(OC)c(NC(=O)Cn2c(=O)n(CC3CCCO3)c(=O)c3cc(OC)c(OC)cc32)c1 (stereo unspecified) 1.99%
COc1ccc(NC(=O)CN(C)S(=O)(=O)c2ccc3c(c2)CCC(=O)N3)c(OC)c1 0.796%
O=[N+]([O-])c1ccc(S(=O)(=O)NCc2nc3cccnc3n2Cc2ccccc2Cl)cc1 -0.198%
Cc1ccc(C)c(OCCn2cc(C(=O)c3cccs3)c3ccccc32)c1 -0.758%
Cc1c(C(=O)OCC2CCCCC2)[nH]c2c1C(=O)CC(c1ccc(F)cc1)C2 (stereo unspecified) 2.04%
COCc1cc(C)nc2sc(C(=O)Nc3ccc(OC(F)(F)F)cc3)c(N)c12 -8.39%
O=c1nc2c(-c3ccc(F)cc3Cl)n[nH]n2c2ccccc12 16.5%
Cc1ccc(C(=O)O)cc1-n1c(C)ccc1-c1ccccc1 -9.16%
CCc1ccccc1NC(=O)CN(c1cccc(C)c1C)S(C)(=O)=O -9.19%
O=C(CSc1nncn2c1cc1occc12)Nc1ccccc1C(F)(F)F -0.472%

outcome, inactive:
O=C(Cn1c2ncccc2c(=O)n1-c1ccccc1)NCc1ccccc1Cl
COc1ccc(CNS(=O)(=O)c2cc3c4c(c2)CCN4C(=O)CC3)cc1
O=C(CSc1nc2c([nH]c3ccccc32)c(=O)n1-c1cccc(Cl)c1)NCC1CCCO1 (stereo unspecified)
Cc1ccc(COc2ccc(-c3cc(C(F)(F)F)n4nc(C)cc4n3)cc2)cc1
O=C(CSc1nc2c(sc3ccccc32)c(=O)n1CCCC(=O)NC1CCCC1)Nc1ccc(F)cc1
CS(=O)(=O)c1oc(-c2ccc(F)cc2)nc1S(=O)(=O)c1ccc(Cl)cc1
COc1ccc(-n2c(=O)c3c(C)c(C)sc3n(CC(=O)NCc3ccc(C)cc3)c2=O)c(OC)c1
CCOC(=O)CNC(=O)c1ccc(-c2nn(C)c(=O)c3ccccc23)cc1
Cc1ccc(NC(=O)c2ccc3oc(=O)c(S(=O)(=O)c4ccccc4)cc3c2)cc1C
CCOC(=O)c1c(NC(C)=O)c2c3c(sc2n1Cc1ccc(Cl)cc1)CCCC3
CCOc1ccc(OC(=O)c2cn(-c3cccc(OC)c3)c(=O)c3ccccc23)cc1
CN(C)c1ccc(-c2nc3cnccn3c2Nc2cccc(C(F)(F)F)c2)cc1
COc1ccc2cc(-c3nc(Cl)c4c5c(sc4n3)CCCC5)c(=O)oc2c1
Cc1cccc(Nc2c(-c3cccs3)nc3nc(C)cc(C)n23)c1
CCc1ccc(CNC(=O)c2cc3c(=O)n(CC)c4ccccc4c3s2)cc1
CC1CCC(NC(=O)c2ccc3c(c2)N(Cc2ccccc2)C(=O)c2ccccc2S3(=O)=O)CC1 (stereo unspecified)
COc1ccccc1CNC(=O)CCc1c(C)nc2c(c(C)nn2-c2ccc(C)c(C)c2)c1C
Cc1cccc(C(=O)N2CCc3cc(CNC(=O)c4ccc(Br)o4)ccc32)c1
COC(=O)c1cc(NC(=O)C2CCCN(S(=O)(=O)c3c(C)n[nH]c3C)C2)cc(C(=O)OC)c1 (stereo unspecified)
COc1ccc(C)cc1NC(=O)Cn1c(=O)nc(-c2ccccc2F)c2cc(Cl)ccc21
CCOC(=O)c1c(C)[nH]c(CCC(=O)Nc2c(Cl)cc(OC)cc2OC)c1C
CCOC(=O)C1CCCN(S(=O)(=O)c2ccc3c(c2)CCN3C(=O)CC)C1 (stereo unspecified)

From PubChem BioAssay AID1963576 (National Center for Advancing Translational Sciences (NCATS), 2024)
